# The campaign covered roughly 150,000 compounds. About 6,500 (4.3%) were called active. This list was built around the results that the source calls inconclusive (neither active nor inactive); the mix of calls is not that of the screen. Calls follow the shape of the dose curve; as a rule, active = well fitted inhibition curve with a large enough effect (not every such curve was filed as active); inconclusive = small, poorly fitted or top-dose-only effect, or another doubt; inactive = no such curve, though single readings can be large or run the other way. Potencies of inconclusive entries are left out as doubtful fits.
# Target: 15-hydroxyprostaglandin dehydrogenase [NAD(+)] (Homo sapiens) (UniProt P15428)
# UniProt P15428, sequence (P15428 whole entry, looked up): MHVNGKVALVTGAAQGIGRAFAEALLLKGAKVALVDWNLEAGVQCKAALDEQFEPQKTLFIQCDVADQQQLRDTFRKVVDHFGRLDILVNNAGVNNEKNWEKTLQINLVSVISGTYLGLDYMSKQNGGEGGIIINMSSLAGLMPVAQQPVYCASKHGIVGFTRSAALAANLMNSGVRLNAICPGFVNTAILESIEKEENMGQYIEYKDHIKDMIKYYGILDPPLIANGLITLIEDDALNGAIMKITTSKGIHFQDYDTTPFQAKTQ
# Experiment: qHTS Assay for Inhibitors of HPGD (15-Hydroxyprostaglandin Dehydrogenase)
# Details: purified HPGD, NADH fluorescence kinetic, PGE2 substrate; activity change, negative = inhibition: stronger effect = lower value
# How it was run: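 20 nM HPGD preincubated 15 min at room temperature with compound in 50 mM Tris-HCl pH 8, 0.01% Tween 20. Started with 1 mM NAD+ and 30 uM prostaglandin E2; NADH fluorescence (360/450 nm) read 5 times over 30-s intervals, last minus first.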
# % is scaled to controls: 0 for no effect and ±100 for the full control effect; potency is read from the fitted curve at half-maximal effect; tags tell the direction and shape of the fitted curve.
SMILES,Potency,"activity change, negative = inhibition"
O=C(NC1CCCC1)c1ccc(CNc2c(N3CCOCC3)c(=O)c2=O)cc1,active: 7.94 µM,
CCO/C=C/C(O)(CNC(=O)c1ccc(C(C)(C)C)cc1)C(F)(F)F (centres undefined),active: 25.1 µM,
CCOC(=O)Cn1c(-c2ccc(Cl)nc2)nc2ccccc21,"inconclusive [inhibitor, partial curve]",
COc1ccc(/C=N/Nc2cc(C)nc(-n3nc(C)cc3C)n2)cc1,,inactive: -3.87%
CC(C)c1nc(N2CCCC2)c(C#N)c2c1CCCC2,"inconclusive [inhibitor, partial curve]",
CCn1c(SCC(=O)N/N=C/c2ccc(C)o2)nnc1-c1ccc(C)cc1,,inactive: -17.5%
O=C(c1ccc(O)cc1)c1ccc(C(=O)c2ccc(O)cc2)cc1,active: 22.4 µM,
Cc1nn(C)cc1/C=C/C(=O)c1cccs1,"inconclusive [inhibitor, partial curve]",
CCCn1nc2cc(C(=O)NCC34CC5CC(CC(C5)C3)C4)ccc2c1OCC,"inconclusive [inhibitor, partial curve]",
CC(C)OCCCNC(=O)c1cc2c(=O)n(C)c3ccccc3c2n1C,"inconclusive [inhibitor, partial curve, poor fit]",
Cc1ccc(NS(=O)(=O)c2cc([N+](=O)[O-])ccc2NNC(=S)Nc2cc(C)ccc2C)c(C)c1,active: 7.94 µM,
O=S(=O)(Nc1ccc(-c2cn3ccsc3n2)cc1)c1ccc2c(c1)OCCO2,"inconclusive [inhibitor, partial curve]",
COc1cc(OC)cc(-c2nc3nc(C)c(CCC(=O)NCc4ccco4)c(C)n3n2)c1,,inactive: -10.9%
CNC(=O)c1cc2cc(OC)ccc2n1CCN(C)C,"inconclusive [inhibitor, partial curve]",
CCN1CCc2c(sc(N)c2C#N)C1,"inconclusive [inhibitor, single point]",
COc1ccc(C2Nc3ccccc3C(=O)N2c2ccc(C)cc2)cc1COc1ccccn1 (centres undefined),"inconclusive [inhibitor, partial curve]",
O=C(c1ccc2c(c1)N(Cc1ccccc1)C(=O)c1ccccc1S2)N1CCCC1,"inconclusive [inhibitor, partial curve, poor fit]",
CCOc1ccc(C2C=C(c3ccc(C)cc3)Nc3ncnn32)cc1 (centres undefined),"inconclusive [inhibitor, partial curve]",
O=C(c1ccccc1)c1ccc(N2CCCC2)cc1,active: 14.1 µM,
COC(=O)C1=C(C(=O)OC)C2(OC1c1ccccc1C)C(=O)c1ccccc1C2=O (centres undefined),"inconclusive [inhibitor, partial curve, poor fit]",
COc1cccc(-c2nc(CS(=O)(=O)CC(=O)NCCCOC(C)C)c(C)o2)c1,,inactive: -8.42%
COC(=O)Cc1c(C)c2ccc(OCC(=O)NCc3ccc4c(c3)OCO4)cc2oc1=O,"inconclusive [inhibitor, partial curve]",
O=C(COC(=O)Cc1cn2ccsc2n1)NCc1ccc2c(c1)OCO2,active: 14.1 µM,
COc1ccc(C2Nc3ccccc3C(=O)N2Cc2ccco2)cc1COc1ccc(F)cc1 (centres undefined),"inconclusive [inhibitor, partial curve]",
COc1ccc2c3c(cccc13)C(=O)N(O)C2=O,,inactive: -15.1%

SMILES,Potency,"activity change, negative = inhibition"
COc1ccc(C2/C=C\CN(S(=O)(=O)c3ccc(C)cc3)CC(=O)N2Cc2cccc(F)c2)cc1 (centres undefined),,inactive: -12.4%
N#CC1=C(N)Oc2cc(N)ccc2C1c1cccnc1 (centres undefined),,inactive: -5.82%
CCOCCCNC(=O)c1c[nH]c2ccc(S(=O)(=O)Nc3cccc(OC)c3)cc2c1=O,"inconclusive [inhibitor, partial curve]",
CC(/C=C1\N=C(SCc2ccccc2)SC1=O)=C\c1ccccc1,,inactive: -19%
CCCc1cc(=O)n2c(nc3ccccc32)[nH]1,"inconclusive [inhibitor, partial curve]",
CCOC(=O)C1CCN(c2nc3ccccc3nc2C(C#N)C(=O)NCCc2ccccc2)CC1 (centres undefined),active: 17.8 µM,
FC(F)(F)c1cc(-c2ccco2)nc(-n2nnc3ccccc32)n1,"inconclusive [inhibitor, partial curve]",
O=C(Nc1ccc(Cl)cc1)c1cc2nc(C3CC3)cc(C(F)(F)F)n2n1,"inconclusive [inhibitor, single point]",
COCCNc1c([N+](=O)[O-])c(=O)n(-c2ccccc2)c2ccccc12,,inactive: -7.41%
O=C(CSc1cnc2ccccc2n1)NC1CCCC1,"inconclusive [inhibitor, single point]",
Cc1nn(-c2ccc(F)cc2)c2sc(C(=O)N3CCCCCC3)cc12,active: 15.8 µM,
Cc1nc(SCC(=O)OCc2ccccc2)c2c(=O)n(C)c(=O)n(C)c2n1,,inactive: -15.7%
CCOC(=O)c1cnn2c(C(F)(F)F)cc(-c3cn(C)nc3C)nc12,"inconclusive [inhibitor, partial curve]",
CC1Cc2ccccc2N1c1ncnc2c1nnn2Cc1ccccc1 (centres undefined),"inconclusive [inhibitor, partial curve]",
Cc1nc(N)nc2ccccc12,"inconclusive [inhibitor, partial curve]",
CC(=O)OCC(=O)Nc1ccc(N=Nc2ccccc2)cc1,"inconclusive [inhibitor, single point]",
CC(=O)C(C)Oc1cc(C)cc2oc(=O)c(C)c(C)c12 (centres undefined),"inconclusive [inhibitor, partial curve]",
Cc1c2c(nc3c(C(=O)NC4CC4)cnn13)CCCC2,active: 20 µM,
COc1ccc2cc3cc(C(=O)NCCCN4CCc5ccccc5C4)sc3nc2c1,"inconclusive [inhibitor, partial curve]",
CCOC(=O)c1c(N)sc(-c2ccccc2)c1C,"inconclusive [inhibitor, single point]",
COc1ncc2nc(-c3cc(F)cc(F)c3)c(=O)n(CCC#N)c2n1,"inconclusive [inhibitor, partial curve]",
Cc1ccc2nc3sc(C(=O)NCc4ccco4)c(N)c3cc2c1,,inactive: -6.84%
CC(CNC(=O)c1ccc(Br)o1)NC(=O)c1ccc(Br)o1 (centres undefined),,inactive: -8.51%
CC(Oc1ccc(Cl)cc1Cl)C(=O)NNC(=O)C(=O)N1CCCCC1 (centres undefined),,inactive: -7.14%
CC(N)=O,,inactive: -28.9%

SMILES,Potency,"activity change, negative = inhibition"
CCN(CC(=O)NCc1ccc(F)cc1)Cc1nc2cc(Cl)ccc2c(=O)[nH]1,active: 31.6 µM,
O=C(Cn1cccc1)NC1CCCCCC1,active: 14.1 µM,
Cc1cc(NC(=O)c2cc3nc4c(c(C(F)(F)F)n3n2)CCc2ccccc2-4)no1,"inconclusive [inhibitor, partial curve]",
CCOC(=O)c1ccc(NS(=O)C23CC4CC(CC(C4)C2)C3)cc1 (centres undefined),"inconclusive [inhibitor, single point]",
CCn1c2ccccc2c2cc(/C=N/n3cnnc3)ccc21,"inconclusive [inhibitor, partial curve]",
COc1ccccc1-c1cc(C(=O)Nc2ccc(F)cc2F)no1,"inconclusive [inhibitor, partial curve]",
CC(=O)Nc1ccc(NC(=O)c2ccccc2CC[N+](=O)[O-])cc1,,inactive: -7.12%
O=C(O)CCCCCn1c(SCc2cc(=O)n3cc(Cl)ccc3n2)nc2ccsc2c1=O,"inconclusive [inhibitor, partial curve]",
O=S(=O)(NC1CCCCC1)c1cccc(-c2nnc(-c3ccccc3)o2)c1,active: 17.8 µM,
COc1nc(C)ccc1-c1noc(-c2ccccn2)n1,active: 22.4 µM,
Cc1nc(NC(=O)c2ccc([N+](=O)[O-])cc2Cl)sc1C(=O)N(C)C,active: 14.1 µM,
O=C(NC1CCCCC1)N(CCO)Cc1cc2cc3c(cc2[nH]c1=O)OCCO3,"inconclusive [inhibitor, partial curve]",
C=C1C2(C(=O)NCc3ccco3)CCC(C2)C1(C)C (centres undefined),active: 25.1 µM,
COc1ccc(C(=O)c2ccccc2)c2c(O)ccc(C(=O)c3ccccc3)c12,,inactive: -26.2%
CCOc1[nH]c(/N=C/c2ccco2)c(C#N)c1C#N,"inconclusive [inhibitor, single point]",
COc1ccc(CCC(=O)NCc2ccco2)cc1,"inconclusive [inhibitor, partial curve]",
O=C(NCc1ccco1)c1nc2c(nnn2Cc2ccccc2Cl)c(=O)[nH]1,active: 14.1 µM,
CN1C(=O)C(Cl)(Cl)C(=O)c2ccccc21,active: 22.4 µM,
CCOC(=O)C1CCN(c2c(NCc3ccc(C(=O)NC(C)CC)cc3)c(=O)c2=O)CC1 (centres undefined),active: 5.01 µM,
CS(=O)(=O)Nc1ccc(OCc2ccccc2)cc1,"inconclusive [inhibitor, partial curve]",
O=C(CSc1ccccn1)Nc1nc2ccccc2s1,,inactive: -4.57%
COc1cc(NC(=O)COc2ccc(Cl)cc2)ccc1-c1cc2ccccc2oc1=O,"inconclusive [inhibitor, single point]",
CC(C)(C)C(=O)Nc1nc(=S)ss1,active: 31.6 µM,
CCOC(=O)c1c(NC(=O)Cn2nc(C(F)(F)F)cc2C)sc2c1CCC2,"inconclusive [inhibitor, single point]",

# Reference: PubChem BioAssay AID894 (National Center for Advancing Translational Sciences (NCATS), 2007)
